The text below walks through data of the supplement of paper PMC10126150.

Sequences with one replicate were seen in a single cluster, so their values are uncertain.

The subject of this data set is ATP. In words: switch fluorescence ratio, 500 uM ATP over buffer (Cy3 cluster intensity, sum of 5 cycles each) (fold (ratio)); higher = stronger signal-on switching upon ATP binding; sequences stand for … in TCGTCGGCAGCGTCAGATGTGTATAAGAGACAGTTTTTTTTTTTTTTTTTTTTTTTTT…TC. The settings on record: aptamer strand: ATP DNA aptamer (quencher-CACCTGGGGGAGTATTGCGGAGGAAGG + anchor), 100 nM annealed; ATP concentration: 500 uM; one replicate. In outline: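 The fluorescence ratio divides summed target-cycle Cy3 intensity by summed buffer-cycle Cy3 intensity for each cluster and is averaged per switch-domain sequence. Cy3-labelled switching-strand clusters on a modified Illumina MiSeq flow-cell were annealed to 100 nM quencher-labelled ATP aptamer, then imaged in selection buffer and again after 15 min with 500 uM ATP at 22 °C. Five such cycles were run, with NaOH stripping and re-annealing between them, and clusters outside 100-1000 RFU were excluded.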
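Note: ATP exposure 15 min at 22 °C before imaging.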

As for TGTGTTATCC, the switch fluorescence ratio was determined as 1.

As for AATTGTATAA, the switch fluorescence ratio is 0.997.

As for CTGTGCTCGC, the switch fluorescence ratio was found to be 1.06.

Regarding TAGCTCGAA, the switch fluorescence ratio amounted to 1.03.

In the case of GGGTCGGAT, the switch fluorescence ratio was determined as 0.998.

As to ATATGGTTAT, the switch fluorescence ratio is 0.989.

Regarding AAATGGACGA, the switch fluorescence ratio is 1.06.

For the sequence ACCTCATTAC, the switch fluorescence ratio is 2.24.

As to GTTATTAT, the switch fluorescence ratio worked out at 0.974.

Consider CTAATAAGGG, for which the switch fluorescence ratio is 0.97.

For the sequence CATTCCGGAC, the switch fluorescence ratio was found to be 1.73.

Turning to CTCTTCACAT, the switch fluorescence ratio was 1.09.

On to TAAATAGTAA, for which the switch fluorescence ratio amounted to 1.

As to CGGATCAGTT, the switch fluorescence ratio was found to be 1.03.

As for TGCGATCGAC, the switch fluorescence ratio is 1.19.

Take TTGCCCACTG: the switch fluorescence ratio worked out at 1.08.

Turning to TAGAGGCTAG, the switch fluorescence ratio came to 0.987.

As for AACTATCAGA, the switch fluorescence ratio stood at 1.01.

With TAGGATCGAC, the switch fluorescence ratio turned out to be 1.01.

As for GCTTTCCTCT, the switch fluorescence ratio worked out at 1.17.

GACAGTGTCG: the switch fluorescence ratio was determined as 1.04.

As to AGTTAAATAA, the switch fluorescence ratio is 1.03.

On to ATAGATAG, for which the switch fluorescence ratio worked out at 1.01.

On to CACGTTGGGA, for which the switch fluorescence ratio worked out at 0.968.

Take GGGGAGGATC: the switch fluorescence ratio came to 0.987.

In the case of GTGACCAGTA, the switch fluorescence ratio was 1.02.

In the case of AACGTCATAC, the switch fluorescence ratio is 3.38.

With TATTTTATGA, the switch fluorescence ratio is 0.977.

For the sequence CAATAAACTA, the switch fluorescence ratio was determined as 1.07.

On to GTTTTGTGAG, for which the switch fluorescence ratio amounted to 1.02.

GCATTCTGTG: the switch fluorescence ratio was 1.

In the case of AAGTTATCTT, the switch fluorescence ratio turned out to be 0.993.

Take ACCTGGGGCT: the switch fluorescence ratio is 1.06.

Take GGTTTACGCC: the switch fluorescence ratio turned out to be 1.04.

Take GATTTTATCG: the switch fluorescence ratio was 1.

Consider CCGTAGTTGT, for which the switch fluorescence ratio turned out to be 4.05.

Take TTGATAAAAT: the switch fluorescence ratio was 1.01.

In the case of CCGCAGCCAA, the switch fluorescence ratio came out at 2.63.

Turning to TAAGAGGTTG, the switch fluorescence ratio was determined as 0.933.

Regarding CATGAACTAG, the switch fluorescence ratio was 1.02.

On to GTTCCTCGCC, for which the switch fluorescence ratio stood at 3.09.

As to AGCGTGGAAC, the switch fluorescence ratio is 1.01.

As to CGGTGTCGTC, the switch fluorescence ratio stood at 0.963.

Turning to CTAATTCGCC, the switch fluorescence ratio was found to be 1.04.

For CGACGCACTT, the switch fluorescence ratio amounted to 4.61.

Consider GGATCAAGAA, for which the switch fluorescence ratio is 1.02.

GTTGGTATCC: the switch fluorescence ratio was 1.04.

On to AGCAGGGAGA, for which the switch fluorescence ratio came out at 1.02.

For CTGTCCAGAA, the switch fluorescence ratio is 1.01.

Turning to CGGGAAGATG, the switch fluorescence ratio was 1.

Turning to CGTGTAGGTA, the switch fluorescence ratio was 1.02.

Consider GTTACCAGCT, for which the switch fluorescence ratio is 0.99.

On to CCGAGGGTCT, for which the switch fluorescence ratio was determined as 1.25.

On to CAGCCACAGC, for which the switch fluorescence ratio was determined as 1.02.

On to TCGAGTGCGA, for which the switch fluorescence ratio stood at 1.1.

ATTATTTATG: the switch fluorescence ratio was 1.01.

As to TGTTTAGCCT, the switch fluorescence ratio was determined as 1.06.

GTTGGTGTTC: the switch fluorescence ratio was 0.978.

Turning to CTTAATTACG, the switch fluorescence ratio was 1.08.

Take CCGAGTGATG: the switch fluorescence ratio stood at 1.48.

Regarding AAGATATACT, the switch fluorescence ratio was 1.04.

As for GTAAAAATAT, the switch fluorescence ratio was determined as 1.15.

For ACTAGCGAAC, the switch fluorescence ratio amounted to 1.57.

In the case of TAATGATCGA, the switch fluorescence ratio was 0.963.

GGTCGAGCCA: the switch fluorescence ratio was found to be 0.979.

With TCCCAGGGGG, the switch fluorescence ratio was 1.47.

Consider CTTAGTGTTG, for which the switch fluorescence ratio came to 1.02.

AAAGACGTTG: the switch fluorescence ratio was found to be 0.996.

For CATGCGGCCA, the switch fluorescence ratio came out at 1.

Regarding CGGTCTAAAG, the switch fluorescence ratio turned out to be 1.03.

With CTGATCGACG, the switch fluorescence ratio was 1.02.

For the sequence AGTCTATGCC, the switch fluorescence ratio was 1.05.

As to CTTTTGATCT, the switch fluorescence ratio amounted to 0.961.

In the case of ACCGGGTACG, the switch fluorescence ratio is 1.07.

As to TGCATTCGCT, the switch fluorescence ratio came to 1.01.

Turning to GTCAATTATC, the switch fluorescence ratio stood at 1.02.

As to CGCTCGGTGA, the switch fluorescence ratio was found to be 1.05.

For AGAACACTAA, the switch fluorescence ratio stood at 1.02.

In the case of GCAGTAAGGA, the switch fluorescence ratio was 1.02.

Regarding ACTTTATGGT, the switch fluorescence ratio is 1.04.

In the case of AGAACAAGCT, the switch fluorescence ratio turned out to be 1.01.

As for GGGTGCGTGT, the switch fluorescence ratio was found to be 0.973.

On to GGGCTTGGC, for which the switch fluorescence ratio was found to be 0.978.

Take CGCGAATCGT: the switch fluorescence ratio stood at 1.

On to GATACTGTCG, for which the switch fluorescence ratio was 0.986.

With CTGGCTCTAT, the switch fluorescence ratio amounted to 1.02.

Take GAGCGGGCTA: the switch fluorescence ratio worked out at 0.919.

Consider AACGCGCCAT, for which the switch fluorescence ratio was 0.999.

Regarding TGTTGACCGC, the switch fluorescence ratio amounted to 1.02.

Turning to GTAGAATTTA, the switch fluorescence ratio is 0.969.

For the sequence TACAACCGGC, the switch fluorescence ratio was 1.11.

Turning to TGTGCGGGGA, the switch fluorescence ratio is 1.08.

On to TAGGTCTGTT, for which the switch fluorescence ratio is 1.01.

With CGAGGGGTAA, the switch fluorescence ratio worked out at 0.975.

On to AAAAAGAGGT, for which the switch fluorescence ratio amounted to 0.964.

In the case of TTATAGCCGG, the switch fluorescence ratio was determined as 0.966.

On to CAACCGAACG, for which the switch fluorescence ratio was found to be 1.34.

On to CCTGGCCAAC, for which the switch fluorescence ratio came to 1.75.

Turning to CACACGTTT, the switch fluorescence ratio is 1.

For the sequence CGGTCCTATA, the switch fluorescence ratio stood at 0.992.

As to ATCAGAACC, the switch fluorescence ratio worked out at 1.03.

In the case of TAGTCCGGG, the switch fluorescence ratio was determined as 1.

On to TCAGTTTTT, for which the switch fluorescence ratio was found to be 1.03.

TTTAGCCAAT: the switch fluorescence ratio worked out at 1.09.

For TGCGATCATG, the switch fluorescence ratio was determined as 1.04.

TAAACCCTGT: the switch fluorescence ratio was 1.03.

On to TCGTAGCCCA, for which the switch fluorescence ratio is 1.08.

With GTATGGCTGC, the switch fluorescence ratio turned out to be 0.973.

Regarding CGCGGGTACG, the switch fluorescence ratio stood at 1.01.

In the case of CCTCGTATCA, the switch fluorescence ratio turned out to be 1.09.

As for GGTGTCTAAC, the switch fluorescence ratio came out at 0.987.

GGCTCTCGT: the switch fluorescence ratio came out at 1.02.

In the case of GGTATAGTCC, the switch fluorescence ratio amounted to 1.02.

Consider CTAAGCAACA, for which the switch fluorescence ratio was found to be 1.44.

Regarding GGGGTGGTCT, the switch fluorescence ratio worked out at 0.978.

For the sequence GATCTGGTAG, the switch fluorescence ratio turned out to be 0.978.

For TTAGTTATGA, the switch fluorescence ratio worked out at 0.937.

TACTGATGTA: the switch fluorescence ratio was 0.97.

With TACACGACAT, the switch fluorescence ratio stood at 1.23.

With ACCCAGATCT, the switch fluorescence ratio was 1.02.
